# Laboratory results: PubChem BioAssay AID686978 (National Center for Advancing Translational Sciences (NCATS), 2013)
# Out of some 420,000 compounds screened, about 64,000 (15%) were called active. This list was built around the results that the source calls inconclusive (neither active nor inactive); the mix of calls is not that of the screen. Calls come from the whole dose curve; as a rule, active = well fitted inhibition curve with a large enough effect; inconclusive = small, poorly fitted or top-dose-only effect; inactive = flat fitted curve, though single readings scatter. Potencies of inconclusive entries are left out as doubtful fits.
# Test: qHTS for Inhibitors of human tyrosyl-DNA phosphodiesterase 1 (TDP1): qHTS in cells in absence of CPT; note: nearly all actives have a fitted effect of over 55% in size
# Conditions: DT40 Tdp1-/- hTDP1 cells, no CPT, ATP luminescence, 48 h; activity change, negative = growth inhibition: at 46.2 µM (top of the series) unless noted
# In short: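 Chicken DT40 Tdp1-/- cells complemented with human TDP1, screened without camptothecin (DMSO vehicle only), 400 cells/well. Compounds pin-transferred, cells incubated at 37 °C for at least 48 hr. Growth read as ATP-dependent luminescence (CellTiter-Glo, 30 min at RT).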
# % is set by controls: 0 for no effect and ±100 for the full control effect; potency is the fitted concentration of half-maximal effect; tags give direction and shape of the fitted curve.
Compound,Potency,"activity change, negative = growth inhibition"
CCCCCC(=O)Nc1cccc(C2=NOC3(C2)C[C@H](C(N)=O)N(C(=O)c2ccccc2C(=O)c2ccccc2)C3)c1 (stereo partly drawn),"inconclusive [inhibitor, single point]",–
COc1ccc(C(=O)CN2CCN(CCN3C(=O)c4cccc5cccc(c45)C3=O)CC2)cc1,active: 20.6 µM,–
Cc1cccnc1NC(=O)c1cccc(NC(=O)CC2SC(N3CCCCC3)=NC2=O)c1 (stereo not drawn),–,inactive: -13.2%
O=C1C2(CCCC13COC(c1ccc(O)cc1)OC3)COC(c1ccc(O)cc1)OC2 (stereo not drawn),–,inactive: 0.35%
Cc1ccc2nc3c(cc2c1)c(NC(=O)c1cccnc1)nn3C,–,inconclusive: -31.8% [inhibitor]
Cc1ccc(NC(=S)NCc2ccc(F)cc2)cc1,active: 25.9 µM,–
CCCC(C(=O)NNC(=O)c1ccncc1)c1ccccc1 (stereo not drawn),–,inactive: -13.3%
C[C@@H]1COC(=O)[C@H](NC(=O)OCC2c3ccccc3-c3ccccc32)C/C=C\C[C@@H](CC(=O)N[C@H](CO)Cc2ccccc2)C(=O)N1,active: 20.6 µM,–
C/C(=N\NC(=O)c1c(Cl)cnn1C)c1cccc(NC(=O)c2ccc(C)cc2)c1,"inconclusive [inhibitor, partial curve]",–
COc1ccc(/C=C2\SC(=S)N(N3CCOCC3)C2=O)c(OC)c1,active: 16.4 µM,–
O=C(NCCc1ccccc1)c1nnc(Cc2cccc(F)c2)o1,–,inactive: -23%
CCSc1ccc2nnc(-c3cccc(F)c3)n2n1,"inconclusive [inhibitor, partial curve]",–
COc1ccc(OCCC(=O)OCC(=O)Nc2ccc(S(=O)(=O)N3CCOCC3)cc2)cc1,–,inactive: -17.5%
CN(C)CCNC(=O)c1ccc2c(=O)n3c(nc2c1)CCCCC3,"inconclusive [inhibitor, single point]",–
N#Cc1ccc(CN2C=NS(=O)(=O)c3ccccc32)cc1,–,inactive: 3.34%
Cn1cnnc1SCC(=O)Nc1ccccc1,–,inactive: 1.29%
Cc1cc(C(=O)COC(=O)CC2Sc3ccccc3NC2=O)c(C)n1-c1ccc2c(c1)OCO2 (stereo not drawn),"inconclusive [inhibitor, single point]",–
NC(Cc1ccccc1)c1csc(Nc2ccc(C(F)(F)F)cn2)n1 (stereo not drawn),active: 20.6 µM,–
O=C(CSc1nnnn1-c1cccc2c1CCCC2)NC1CCCC1,"inconclusive [inhibitor, partial curve]",–
c1ccc(-c2ccccc2OCCOCCN2CCc3ccccc3C2)cc1,active: 11.6 µM,–
O=[N+]([O-])c1ccc(N(CC(O)CN2CCCCC2)S(=O)(=O)c2ccccc2)cc1 (stereo not drawn),–,inactive: -13.3%
COc1ccc(Cl)cc1S(=O)(=O)n1cnc2ccccc21,"inconclusive [inhibitor, single point]",–
O=C(CCS(=O)(=O)c1cccs1)Nc1ccc(C(=O)Nc2ccccc2F)cc1,–,inactive: -11.5%
Cc1ccc(NS(=O)(=O)c2ccc(Br)s2)cc1S(=O)(=O)N1CCOCC1,–,inactive: -15.4%
Cc1cc(CNC(=O)COc2ccc(C#N)cc2)c2ccccc2n1,"inconclusive [inhibitor, single point]",–

Compound,Potency,"activity change, negative = growth inhibition"
CCCCOc1ccc(C(C)NC(=O)C2CCCN(S(=O)(=O)CCC)C2)cc1 (stereo not drawn),active: 16.4 µM,–
CCOC(=O)N1CCC(N2CCN(S(=O)(=O)c3ccc([N+](=O)[O-])cc3)CC2)CC1,"inconclusive [inhibitor, single point]",–
Cc1ccc(N2C(=O)CC(Sc3cccs3)C2=O)cc1 (stereo not drawn),active: 5.8 µM,–
Cc1ccc(-n2nc(C(=O)N/N=C/c3cccc(C(F)(F)F)c3)c3ccccc3c2=O)cc1C,"inconclusive [inhibitor, full curve]",–
CCN(Cc1ccccc1)C(=O)CN(c1ccc(OC)cc1)S(=O)(=O)c1c(C)nn(C)c1C,"inconclusive [inhibitor, single point]",–
Cc1ccc(C)c(Cn2cc(S(=O)(=O)c3ccc(Cl)cc3)c(=O)c3cc(F)ccc32)c1,active: 25.9 µM,–
COCC(C)n1c(SCC(=O)Nc2nccs2)nc2ccccc2c1=O (stereo not drawn),–,inactive: -27.3%
O=C(OCC(=O)N1CCCC1)c1cc(Br)ccc1Cl,"inconclusive [inhibitor, partial curve, poor fit]",–
C[C@H](NCc1c[nH]c2ccccc12)c1ccccc1,"inconclusive [inhibitor, partial curve, poor fit]",–
CCCCN(CCCC)CCNC(=O)c1cn(CC)c2ccc(S(=O)(=O)N(C)C3CCCCC3)cc2c1=O,active: 6.51 µM,–
COc1ccc(Cl)cc1NS(=O)(=O)c1ccc2c(c1)NC(=O)CC(=O)N2,–,inactive: -2.42%
C=C(C)Cn1c(=O)c2c(nc3n2CCN3c2cccc(Cl)c2C)n(C)c1=O,"inconclusive [inhibitor, partial curve]",–
CC(=O)N1CCc2c(sc3c2c(=O)n(CCc2ccccc2)c(=O)n3Cc2ccc(Cl)cc2)C1,"inconclusive [inhibitor, single point]",–
CC1CCc2c(sc(NC(=O)CSc3nc4c(c(C(F)(F)F)n3)CCc3ccccc3-4)c2C(N)=O)C1 (stereo not drawn),–,inactive: -21.9%
C[C@@H]1CN([C@@H](C)CO)C(=O)c2cc(NC(=O)Nc3ccccc3)ccc2O[C@@H](C)CCCCO[C@H]1CN(C)C(=O)Nc1ccc(C(F)(F)F)cc1,"inconclusive [inhibitor, single point]",–
CC(C)CN(C(=O)CN1C(=O)C2CCCCC2C1=O)c1c(N)n(Cc2ccccc2)c(=O)[nH]c1=O (stereo not drawn),–,inactive: -0.4%
CCN(Cc1ccncc1)C(=O)c1cc(COc2ccc(F)cc2Cl)on1,"inconclusive [inhibitor, single point]",–
CCn1c(=O)c2sccc2n(CC(=O)NC2CCCC2)c1=O,–,inactive: -9.81%
COc1ccc2c(c1)C=C(C(=O)NCc1ccc(Cl)cc1)CO2,–,inactive: -15.2%
CCOC(=O)c1c(CN2CCN(Cc3ccccc3)CC2)n(C)c2cc(Br)c(OC)cc12,active: 16.4 µM,–
COc1ccc(NS(=O)(=O)c2cccc(C(=O)NCC(c3ccco3)N3CCCC3)c2)cc1 (stereo not drawn),–,inactive: -26.7%
Cc1ccc2[nH]c(O)c(N=NC(=O)CCc3ccccc3)c2c1Br,"inconclusive [inhibitor, partial curve, poor fit]",–
CC(NCc1ccc(OCC(N)=O)cc1)C12CC3CC(CC(C3)C1)C2 (stereo not drawn),"inconclusive [inhibitor, single point]",–
O=C(c1ccncc1)N1CCC2(CCN(Cc3ccncc3)CC2)CC1,–,inactive: -9.87%
CN(c1ccc(C(=O)N2CCOCC2)cc1)S(=O)(=O)c1ccc(Cl)cc1,–,inconclusive: -32.1% [inhibitor]

Compound,Potency,"activity change, negative = growth inhibition"
O=C(Nc1cccc(F)c1)N1CCCC2(CCN(C(=O)c3cc(C(F)(F)F)cc(C(F)(F)F)c3)CC2)C1,"inconclusive [inhibitor, single point]",–
Cc1ccc(C(=O)c2c(NC(=O)c3cccnc3)sc3c2CCCC3)cc1,–,inactive: -23.4%
Cc1cccc(C)c1NC(=O)c1cn(-c2ccccc2)nc1-c1ccccc1,"inconclusive [inhibitor, partial curve]",–
CN(C)C(=O)c1cccc(-c2cnc3c(NC=O)cc(-c4cccc(C(F)(F)F)c4)cn23)c1,active: 8.2 µM,–
Cc1cc2c(cc1S(=O)(=O)N1CCCCC1)OCC(=O)N2,"inconclusive [inhibitor, single point]",–
CN(C)c1ccc(/C=N/N(CCC#N)C2=NS(=O)(=O)c3ccccc32)cc1,"inconclusive [inhibitor, single point]",–
CN(C)c1ccc(CNc2ncn[nH]2)cc1,–,inactive: 1.84%
CC(C)n1c(-c2cccs2)nc2ccccc21,"inconclusive [inhibitor, full curve, poor fit]",–
Cc1ccc(CCNC(=O)CCS(=O)(=O)c2ccc3nc(C)sc3c2)cc1,–,inactive: -11.8%
O=C(CN1C(=O)CCc2cc(S(=O)(=O)N3CCOCC3)ccc21)NCc1ccccc1,–,inactive: -0.131%
COc1ccc(CCNC(=O)COC(=O)/C=C/c2ccc(OCC#N)c(OC)c2)cc1OC,"inconclusive [inhibitor, single point]",–
CCOc1ccc(C(C)NC(=S)NC2CCCCC2)cc1OCC (stereo not drawn),"inconclusive [inhibitor, single point]",–
COC(=O)CCC(=O)NC1CC(C)(C)Cc2c1cnn2-c1ccc(F)cc1 (stereo not drawn),"inconclusive [inhibitor, full curve, poor fit]",–
CC(C)(C)c1cc(Cl)ccc1OCCOCCN1CCCC1,active: 13 µM,–
COc1cccc(OC)c1C(=O)Nc1nc2cc3c(cc2s1)OCO3,–,inactive: 11.2%
COc1ccccc1NC(=S)NC(C)C(c1cccs1)N1CCOCC1 (stereo not drawn),"inconclusive [inhibitor, single point]",–
CC(C)Oc1nc(-c2ccccc2O)nc2ccccc12,–,inactive: -14.5%
CN(C)S(=O)(=O)c1cccc(NC(=S)NNC(=O)c2cc3ccccc3cc2O)c1,"inconclusive [inhibitor, single point]",–
O=C1N(Cc2cccnc2)C[C@@H]2C[C@@H](c3cccc(Oc4ccccc4)c3)N3CCC[C@@]123,"inconclusive [inhibitor, single point]",–
CNS(=O)(=O)c1cccc(C(=O)OCC(=O)Nc2sc3c(c2C#N)CCCCC3)c1,–,inactive: -5.49%
CC(C)=NNc1nc(-c2ccc(N3C(=O)CCC3=O)cc2)cs1,"inconclusive [inhibitor, partial curve]",–
CCC(=O)NC1(Cc2ccc(O)cc2)CCCCC1,–,inactive: -14%
CN(Cc1ccccc1)C(=O)c1ccc(Nc2nc(C(N)Cc3ccccc3)cs2)nc1 (stereo not drawn),active: 13 µM,–
